The source of these data is a collection of fitness landscapes (doi:10.1038/s41467-024-54723-y).

In all, about 18,000 sequences were measured (“TetR repression strength (sort-seq, GFP reporter)”: median about 0.23, highest 2% from about 0.68 on). Some of the results follow.

This assay concerns the target TetR (class B, Tn10) (UniProt P04483). The assay is described as follows: TetR repression strength (sort-seq, GFP reporter) (relative to tetO2 = 1); higher = stronger repression. As to conditions: E. coli. In short, it runs like this: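 In LB with 50 µg/mL chloramphenicol, E. coli SIG10-MAX holding a low-copy library with eight randomized operator positions between a constitutive promoter and sfGFP, plus constitutive TetR, grew for 5 h at 37 °C. FACS then sorted 10^6 cells into 13 fluorescence bins for Illumina sequencing of each bin. Repression strength equals the top bin index plus one less the read-weighted mean bin, normalized to the unaltered operator. Values from three independent transformations were averaged when reads were ≥30 in every replicate and the CV was ≤0.5.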
Chain of UniProt P04483 (P04483 whole entry): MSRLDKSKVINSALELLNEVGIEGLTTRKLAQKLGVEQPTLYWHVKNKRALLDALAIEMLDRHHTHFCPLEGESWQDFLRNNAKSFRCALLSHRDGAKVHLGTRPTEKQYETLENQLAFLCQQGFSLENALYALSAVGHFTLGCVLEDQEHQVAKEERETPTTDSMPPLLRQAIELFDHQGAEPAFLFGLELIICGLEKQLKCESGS
In turn, TCCCTTCGAGTTCCTGAGA gave a TetR repression strength of 0.409. Regarding TCCCGTAGAGTAATTGAGA, the TetR repression strength was determined as 0.217. Then TCCCGCGGAGTCGAAGAGA, with 0.415; and TCCCTCAGAGTGATGGAGA, with 0.152. Then TCCCGCTGAGTGAGAGAGA, with 0.406.

In turn, TCCCGAAGAGTACGGGAGA came in with a TetR repression strength of 0.357. Then TCCCATTGAGTGAATGAGA, with 0.301; and TCCCTGCGAGTAAGCGAGA, with 0.205. Then TCCCGTATAGTCACCGAGA, with 0.095; and TCCCATAAAGTAGAAGAGA, with 0.234. To TCCCAGGTAGTACGGGAGA belongs 0.119; to TCCCGTGAAGTGTAGGAGA, 0.235; to TCCCACTGAGTCAGAGAGA, 0.279. TCCCAGTGAGTCTCGGAGA gave a TetR repression strength of 0.375.

The sequence TCCCGCCAAGTATCGGAGA gave a TetR repression strength of 0.547. Then TCCCTCGAAGTGTCGGAGA, with 0.305; and TCCCCCCGAGTTCCTGAGA, with 0.466; and TCCCTTTTAGTGCATGAGA, with 0.711. Then TCCCAGGAAGTAAACGAGA, with 0.301.

TCCCACTGAGTTTACGAGA: the TetR repression strength is 0.282.

Take TCCCGCCAAGTCCGCGAGA: the TetR repression strength was determined as 0.179.

On to TCCCACAGAGTGCGTGAGA, for which the TetR repression strength was found to be 0.543.

TCCCCTTAAGTGGTAGAGA came in with a TetR repression strength of 0.201.

TCCCGGACAGTGAAGGAGA gave a TetR repression strength of 0.295.

As to TCCCGCACAGTGTGCGAGA, the TetR repression strength stood at 0.199. Then TCCCGGATAGTCCAGGAGA, with 0.131; and TCCCCGGGAGTGGAAGAGA, with 0.185. To TCCCTCGGAGTAGTCGAGA belongs 0.0803; to TCCCGGTGAGTTGCCGAGA, 0.386; to TCCCACACAGTATATGAGA, 0.207.

In the case of TCCCGAAGAGTGTGGGAGA, the TetR repression strength was 0.339. To TCCCGTCAAGTGGATGAGA belongs 0.109; to TCCCCTGAAGTTTCGGAGA, 0.222. To TCCCGAAGAGTGACGGAGA belongs 0.364; to TCCCAGGTAGTGACTGAGA, 0.294; to TCCCCGAGAGTGTGTGAGA, 0.248. TCCCGGAGAGTACCGGAGA had a TetR repression strength of 0.0749. To TCCCATCGAGTTCCCGAGA belongs 0.265. Then TCCCTAGGAGTGGACGAGA, with 0.458; and TCCCGGGCAGTGGCCGAGA, with 0.354; and TCCCAGAAAGTAGAAGAGA, with 0.0159. Sequence TCCCAATGAGTGTGTGAGA showed a TetR repression strength of 0.24. To TCCCTCAAAGTTGTGGAGA belongs 0.389; to TCCCAGCTAGTTTCCGAGA, 0.336. Then TCCCCCCGAGTAAGAGAGA, with 0.5; and TCCCGGCAAGTTGGGGAGA, with 0.224. Then TCCCACGTAGTGCTAGAGA, with 0.241; and TCCCAAGCAGTGCGTGAGA, with 0.0766; and TCCCCTACAGTGGGCGAGA, with 0.262.

The sequence TCCCTTCAAGTCTCCGAGA yielded a TetR repression strength of 0.338. To TCCCGCTGAGTTAACGAGA belongs 0.241. To TCCCCTGTAGTTATAGAGA belongs 0.175; to TCCCTTCAAGTAATAGAGA, 0.436; to TCCCCTCTAGTAGTTGAGA, 0.149.

TCCCCAATAGTGTGAGAGA gave a TetR repression strength of 0.187. Take TCCCCTTTAGTTATAGAGA: the TetR repression strength came to 0.333. Sequence TCCCTTCGAGTGTAAGAGA gave a TetR repression strength of 0.206. Then TCCCGAATAGTCCGTGAGA, with 0.355; and TCCCCAGGAGTGCACGAGA, with 0.236.

TCCCTTTAAGTAACCGAGA had a TetR repression strength of 0.449. To TCCCCTTTAGTGCGCGAGA belongs 0.333; to TCCCGGGCAGTCTCGGAGA, 0.257.

Consider TCCCACGCAGTGAGCGAGA, for which the TetR repression strength is 0.101. Take TCCCTGTGAGTGTAAGAGA: the TetR repression strength amounted to 0.308.

TCCCAAGGAGTCGGAGAGA gave a TetR repression strength of 0.16. TCCCAAGGAGTGATAGAGA registered a TetR repression strength of 0.977. To TCCCTGTCAGTTGGCGAGA belongs 0.874; to TCCCGGTAAGTGAGTGAGA, 0.277; to TCCCGTGGAGTTCAGGAGA, 0.13. Turning to TCCCCAGTAGTGACGGAGA, the TetR repression strength came to 0.28. To TCCCGAAAAGTAGGGGAGA belongs 0.143; to TCCCATTTAGTAGTGGAGA, 0.135; to TCCCTCTAAGTGAACGAGA, 0.296. Then TCCCGCGGAGTTGCTGAGA, with 0.292; and TCCCGCTGAGTCTGTGAGA, with 0.235.

As for TCCCTTATAGTAGGCGAGA, the TetR repression strength is 0.0601.

Turning to TCCCCTTGAGTGGTCGAGA, the TetR repression strength amounted to 0.162.

As to TCCCCTAGAGTCGTTGAGA, the TetR repression strength was 0.311. Then TCCCCCGAAGTCCGTGAGA, with 0.216; and TCCCAGCGAGTCTGCGAGA, with 0.166; and TCCCGAACAGTTGATGAGA, with 0.311. Then TCCCACTTAGTGGGGGAGA, with 0.105; and TCCCTCATAGTGGGGGAGA, with 0.194. Sequence TCCCGGGTAGTCGTGGAGA gave a TetR repression strength of 0.19. To TCCCAGGCAGTGTGCGAGA belongs 0.291; to TCCCATCGAGTCAGAGAGA, 0.36. As for TCCCTGGCAGTCGGGGAGA, the TetR repression strength worked out at 0.473. Then TCCCTATAAGTGCTTGAGA, with 0.379; and TCCCGGTCAGTTACGGAGA, with 0.212; and TCCCTGCAAGTGATCGAGA, with 0.298. Then TCCCCTTTAGTAGGCGAGA, with 0.118; and TCCCTGTTAGTAGTTGAGA, with 0.362. To TCCCGTGGAGTGTTAGAGA belongs 0.23; to TCCCGATAAGTAGCGGAGA, 0.234. TCCCGGTAAGTGAAGGAGA displayed a TetR repression strength of 0.14. Then TCCCCGCAAGTTACAGAGA, with 0.267; and TCCCAGGGAGTCCGGGAGA, with 0.229; and TCCCAATGAGTGAAAGAGA, with 0.451. To TCCCACGTAGTCCTCGAGA belongs 0.293; to TCCCTGCGAGTGGGGGAGA, 0.264; to TCCCACGTAGTGGTTGAGA, 0.322. To TCCCTCTCAGTTGGTGAGA belongs 0.339; to TCCCCTGCAGTAGGGGAGA, 0.253; to TCCCGTGCAGTCGTCGAGA, 0.216. Regarding TCCCTTTGAGTGCATGAGA, the TetR repression strength was 0.403. To TCCCGTTTAGTGATGGAGA belongs 0.124; to TCCCGGGGAGTGTGTGAGA, 0.226; to TCCCTATGAGTTGCGGAGA, 0.383. To TCCCGGAAAGTTAGCGAGA belongs 0.153. To TCCCTTTAAGTTATTGAGA belongs 0.618; to TCCCCGTCAGTGAGTGAGA, 0.36.

In turn, TCCCTGATAGTATTAGAGA had a TetR repression strength of 0.228. Then TCCCCGCAAGTCTAGGAGA, with 0.739. To TCCCAAAGAGTGGGTGAGA belongs 0.189; to TCCCGCCCAGTGCAGGAGA, 0.203. To TCCCTGATAGTGGCGGAGA belongs 0.0318; to TCCCAATTAGTGCGCGAGA, 0.244; to TCCCCATAAGTATTAGAGA, 0.379.

TCCCCTGCAGTCCATGAGA showed a TetR repression strength of 0.42.

In turn, TCCCAAAGAGTACGTGAGA registered a TetR repression strength of 0.207.

TCCCGGGGAGTGATGGAGA gave a TetR repression strength of 0.229. Then TCCCAATAAGTAGGCGAGA, with 0.252; and TCCCACGGAGTGTCTGAGA, with 0.0542. As to TCCCGCTCAGTAAGGGAGA, the TetR repression strength came out at 0.325. To TCCCTGGAAGTAATCGAGA belongs 0.241. Then TCCCCATGAGTACTCGAGA, with 0.261; and TCCCATCGAGTCATTGAGA, with 0.158; and TCCCCACTAGTTCATGAGA, with 0.335. To TCCCATTGAGTTTGTGAGA belongs 0.3; to TCCCGTTGAGTATCTGAGA, 0.233.
